# Test results from paper PMC12136788.
# Some of the results follow.
# T1: UNK ZnF1-6 (called full-length) (human, UniProt Q9C0B0 30-357)
# T1 sequence: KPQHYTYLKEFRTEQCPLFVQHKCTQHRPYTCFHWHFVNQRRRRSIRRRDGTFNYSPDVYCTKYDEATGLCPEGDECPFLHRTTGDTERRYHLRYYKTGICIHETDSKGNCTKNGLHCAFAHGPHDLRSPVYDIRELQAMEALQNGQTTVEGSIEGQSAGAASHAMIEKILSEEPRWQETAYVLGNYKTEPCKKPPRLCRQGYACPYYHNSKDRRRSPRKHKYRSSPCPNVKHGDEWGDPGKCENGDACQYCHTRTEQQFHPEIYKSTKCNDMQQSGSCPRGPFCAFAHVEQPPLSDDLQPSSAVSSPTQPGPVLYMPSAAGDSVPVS
# B1: chr1:93888438:93888539:-|3pUTR|ENSG00000023909|msi1|FALSE|unique (ssRNA)
# RNA: GGGAGUUCUACAGUCCGACGAUCAGAUAUUUUUCCUGUCAUUGAUGAGAUAUAUCAGAGUAACUGGAGUAGCUGGGAUUUACUAGUAGUGUAAAUAAAAUUCACUCUUCAAUACAUGAAUGGAAACUUAAAUUUUUUUUUAUGCAACAGAGGAUUGAGCAUCA
# B2: chr2:106801599:106806677:-|three_prime_utr|ENSG00000144057|control|control|control (ssRNA)
# RNA: GGGAGUUCUACAGUCCGACGAUCAAUCAAUGUGCAAUAAGGUACUACUGUUGUACUCAAAGUCACAAAAGAAUACUUGAAGAUAGAUUUUAGACAGUGUAGUUUUGAGUCUUUAAACAGUAAUUUAGUGGUGGUCAUGAUAAUCAACAGAGGAUUGAGCAUCA
# B3: chr22:39520512:39520623:+|5pUTR|ENSG00000128272|unk|total|mutant (ssRNA)
# RNA: GGGAGUUCUACAGUCCGACGAUCUCUAUAAAGGGCCGGCGGGCGGCCACGGCAGCCAUUUCUACUUUGCCCGCCCACAGAUGCCGUUUUCUCUGCGCGUGUGCGUUUUCCCUCCUCCCCGCCCUCAGGGUCCACGGCCACCAUCAACAGAGGAUUGAGCAUCA
# B4: chr11:103061782:103061883:-|3pUTR|ENSG00000137692|unk|total|mutant (ssRNA)
# RNA: GGGAGUUCUACAGUCCGACGAUCAAGACUGUUGGCCUUGACUUCUGGGAUAAUGAUUUGCUGAUGCAGCUAAUAAACAUUUCCCGGUAUUGGAAAAAUGCUCCUACUUUCCGCUCUGGGUUUCUAUAAAAGCUGCCAAGGUCUCAACAGAGGAUUGAGCAUCA
# B5: chr8:58815337:58815724:-|CDS|ENSG00000198846|control|control|control (ssRNA)
# RNA: GGGAGUUCUACAGUCCGACGAUCUAGUCUCCCCAGGAACAUAGCCCCCAAGCCGAAUAACCAAAUGCCAGUGACUGUCUCUAUAGCAAACAUGGCUGUGUCCCCUCCUCCUCCCCUCCAGAUCAGCCCGCCUCUUCACCAGCACAACAGAGGAUUGAGCAUCA
# B6: ENSG00000069329:stop:overlap|stop_codon|ENSG00000069329|stop_codon|NA|stop_codon (ssRNA)
# RNA: GGGAGUUCUACAGUCCGACGAUCUGGAGAAGGGGCCCCACAGACCGUUCGGGAUUAAGACCAGCCCGAUUUGGCCUGCGGGAUAGGGGACAGCAGGAGGAAGGCCGCGGGCAGGCUGAUCCGGGCCGGGGUGGGCGGCGGCUCCAACAGAGGAUUGAGCAUCA
# B7: ENSG00000112208:stop:overlap|stop_codon|ENSG00000112208|stop_codon|NA|stop_codon (ssRNA)
# RNA: GGGAGUUCUACAGUCCGACGAUCAGCAUUCUAAAGGAGCUGGUUCCAAAACUCUGCAACAAAAUGCUGAAAGCAGAUUCAAUUAGUCUUCAAACCUAAGAGCAUUUACACAAUACACAAGGUGUAAAAAUGAUAAAAUACUAUCAACAGAGGAUUGAGCAUCA
# B8: chr11:92891788:92891889:+|3pUTR|ENSG00000165323|msi1|total|mutant (ssRNA)
# RNA: GGGAGUUCUACAGUCCGACGAUCAUGAGGCUUUUUGGGUUCCAUUUGGUGGGUGGGGGAGGAAGUUAAAGUUGUUUGAACAUCCGAAAGAAUGUGAUUAUCUGGUUGGUUUUGUGUUUUCUGGUAAAUAUUCCAGUUGGUAAACAACAGAGGAUUGAGCAUCA
# B9: chr17:30468017:30468118:+|3pUTR|ENSG00000108582|unk|total|mutant (ssRNA)
# RNA: GGGAGUUCUACAGUCCGACGAUCGCUAAAAUUUUGGGGAUAUGAUUUGGGUCUUUGAUUAAUGUCAGCUGAACUUGGAUUUCCCGUUCAUGAAGAAAUCUCUCCCAAUACCCAUUUAUCCUAUUUUCCGCAAUAAUUCGUUAACAACAGAGGAUUGAGCAUCA
# B10: chr15:34852525:34852627:-|3pUTR|ENSG00000021776|unk|total|mutant (ssRNA)
# RNA: GGGAGUUCUACAGUCCGACGAUCCCCGCAUUUCCCAAACUUAUCCGAGCAUAAAACUUUGUUUUUGUUUUUUUUUAAUAAGACCGGCCGCUAUUUCCUCCGAACACAGUUUGGGAAACUUUUUGUUCAUUUGUUUUAAUAAGACAACAGAGGAUUGAGCAUCA
# B11: chr17:79834786:79834887:-|CDS|ENSG00000141582|unk|total|mutant (ssRNA)
# RNA: GGGAGUUCUACAGUCCGACGAUCAAUGAUGCCGGCCCCCAAAGAGGCUGUGACGGGCAACGGGAUUGGGGGCAAGAUGAAGACCGUCAAGAACAAGAACAAGAACGGACGCAUCGUGAUCGUGAUGAGCAAAUACAUGGAGAACAACAGAGGAUUGAGCAUCA
# B12: ENSG00000107863:be:win_4751|CDS|ENSG00000107863|bound_else_gene|NA|bound_elsewhere_windowed (ssRNA)
# RNA: GGGAGUUCUACAGUCCGACGAUCCCUCAGAUUAUUCCACCACAUCGUCUGCUACAUACUUGACUAGCCUGGACUCCAGUCGACUGAGCCCUGAGGUGCAAUCCGUGGCAGAGAGCAAGGGGGACGAGGCAGAUGACGAGAGAACAACAGAGGAUUGAGCAUCA
# B13: chr19:35623609:35623710:+|3pUTR|ENSG00000249115|unk|total|mutant (ssRNA)
# RNA: GGGAGUUCUACAGUCCGACGAUCGCCUUCCCGUUUGUACCGUUUCUUUUUUUACAUGUAAAUCAGCCAUUUGGAAUUUAUCCCCGCACAUGGAUCCAAUUUUGUCUUAUUUUACAUAUAUCCCCGCCGCACUUACUGAAAUUCCAACAGAGGAUUGAGCAUCA
# B14: chr5:41382290:41382405:-|CDS|ENSG00000182836|unk|FALSE|unique (ssRNA)
# RNA: GGGAGUUCUACAGUCCGACGAUCGGCCAAAAAGCUCAUGCGGAAAUGGUUAGCCACUCAGACAAUGAAUUUUACUGGCCAGCUAGGAGCUGGAAUUCGUUAUUUUGAUCUUCGAAUUUCCACCAAGCCCAGAGACCCCGACAACAACAGAGGAUUGAGCAUCA
# B15: chr6:63788104:63788249:-|CDS|ENSG00000188107|control|control|control (ssRNA)
# RNA: GGGAGUUCUACAGUCCGACGAUCUAAAUCCAUUAUCGCCCCAGGAAGACUGGUUGGUCUCAAUGUCUUCAGUCAGUUUUAUGUAGGUGGCUACAGUGAAUACACUCCAGAUCUCUUACCAAAUGGAGCAGAUUUUAAAAAUGGCAACAGAGGAUUGAGCAUCA
# B16: chr11:36273890:36273991:-|3pUTR|ENSG00000110442|msi1|total|mutant (ssRNA)
# RNA: GGGAGUUCUACAGUCCGACGAUCGGUGAAGAAGUGGGAAUAAUUGGAACUAAACAACAGUUCUAAAACUUCCAUGAUUUUUGCCGCUUCUUUUGUCCCCAAGUUGAAGCUUUUGGCCAGUACCUUCUCCCGUUUUUAAAGAUGCAACAGAGGAUUGAGCAUCA
# B17: chr8:103442975:103443076:+|3pUTR|ENSG00000164934|msi1|total|mutant (ssRNA)
# RNA: GGGAGUUCUACAGUCCGACGAUCGGACCCGAUUAAUUGCAAACAUUUCCGUUAUAUGUGCCGAGCUUUAUUGUUACUCCUUUCCGCUACCCUGAAAAAUGAUCCUUAAAGGUGGCCCCGUUGGUAAGACUGUUUUAUCCUUAACAACAGAGGAUUGAGCAUCA
# B18: chr7:151395775:151396196:-|CDS|ENSG00000187260|control|control|control (ssRNA)
# RNA: GGGAGUUCUACAGUCCGACGAUCCAGCGGCUGCUGCCACCAGACGCUGCGGGGCCACACGGGUGCAGUGCUGUGCCUAGUGCUAGACACGCCCGGCCACACGGCCUUCACAGGCAGCACCGACGCCACCAUCCGUGCCUGGGACAACAGAGGAUUGAGCAUCA
# B19: chr5:148442723:148442824:+|3pUTR|ENSG00000145868|unk|total|mutant (ssRNA)
# RNA: GGGAGUUCUACAGUCCGACGAUCUUAUGAGCUUAAAAAAAAGUGAGUUUGAGAGGGAAAUGGAAAAGUUUCCAGAGUAUUUCCCGUAAUUUAUUUCCACAUUGAAUUGUGUAUAUGCUUUAUCUUGAAUAUAAAAUAAAAGUUCAACAGAGGAUUGAGCAUCA
# B20: ENSG00000147256:stop:overlap|stop_codon|ENSG00000147256|stop_codon|NA|stop_codon (ssRNA)
# RNA: GGGAGUUCUACAGUCCGACGAUCCAUUGCUCCGUGUGCCCCGGGAGAAGGAGGCCAAAACUGGCGUCAGCUACUUCUUUCCUUAGAUGUUUUUCCUUCUAUAAGGUGCCAGACAGGGGAAAAGGGUGGGGGUACAUCUGGGAUCAACAGAGGAUUGAGCAUCA
# B21: chr9:88477803:88477904:+|3pUTR|ENSG00000106723|msi1|FALSE|bound_elsewhere (ssRNA)
# RNA: GGGAGUUCUACAGUCCGACGAUCGACAAUACAAGACAUGAAUCUAUGUAUAAAAUUUAUCGGCCUUUCUCAUUUACCUGCUCUAGUAUUAUUGUAUUGUGUGUGCGUGCGUGUGUGAUGUCAGGCUGCCACGUAAAACUUCAGCAACAGAGGAUUGAGCAUCA
# B22: chr13:48512728:48512895:-|CDS|ENSG00000136161|control|control|control (ssRNA)
# RNA: GGGAGUUCUACAGUCCGACGAUCCUUUACCUGGGGUCAUAAUGCUUAUAGCCAGCUGGGCAAUGGGACAACUAAUCAUGGUUUAGUGCCCUGUCAUAUCUCUACUAAUCUGUCAAACAAACAAGUCAUUGAAGUUGCCUGUGGCAACAGAGGAUUGAGCAUCA
# Target: T1, UNK ZnF1-6 (called full-length)
# Assay: nsRBNS (natural sequence RNA bind-n-seq); RBNS binding buffer (assumed for nsRBNS): 25 mM Tris pH 7.5, 150 mM KCl, 3 mM MgCl2, 0.01% Triton X-100, 500 ug/ml BSA, 20 U/ml SUPERase-In, 4 C; UNK is unkempt and MSI1 is Musashi-1; names of the RNAs are library labels; protein concentration not given here; high values mean tight binding
row,Binder,binding signal
1,B1,1.25 enrichment R
2,B2,0.614 enrichment R
3,B3,0.941 enrichment R
4,B4,0.482 enrichment R
5,B5,1.56 enrichment R
6,B6,1.09 enrichment R
7,B7,0.548 enrichment R
8,B8,0.882 enrichment R
9,B9,0.421 enrichment R
10,B10,0.868 enrichment R
11,B11,0.734 enrichment R
12,B12,0.755 enrichment R
13,B13,0.718 enrichment R
14,B14,0.472 enrichment R
15,B15,0.369 enrichment R
16,B16,0.341 enrichment R
17,B17,0.233 enrichment R
18,B18,0.529 enrichment R
19,B19,0.741 enrichment R
20,B20,0.84 enrichment R
21,B21,1.09 enrichment R
22,B22,0.616 enrichment R
